Experimental data: publication PMC3546041, “Direct Homo- and Hetero-Interactions of MeCP2 and MBD2” (PLoS ONE, 2013)

Target: T1, GFP-tagged full-length MBD2 (Sf9) (mouse, UniProt Q9Z2E1 1-414)
T1 construct: MBD2a, mouse, full length (414 residues by the limits of the deletion constructs); Cloned into pFB-C-GFP; also called MBD2G; MBD2aG; source: Sf9 (baculovirus); immobilised on GBP-sepharose beads and washed, or used as protein extract
Experiment: pull-down; GFP-labelled full-length MBD proteins or GFP immobilised on GBP-sepharose beads; purified MBD2st in solution; proteins extracted with 0.5 M NaCl lysis buffer; PBS plus 150 mM NaCl, 0.05% NP-40; 1 h, 4 C; Western blot with st-HRP
Settings: both partners purified

B1: strep-fused full-length MBD2 (natural protein, mouse)
chain: MRAHPGGGRCCPEQEEGESAAGGSGAGGDSAIEQGGQGSALAPSPVSGVRREGARGGGRGRGRWKQAARGGGVCGRGRGRGRGRGRGRGRGRGRGRPQSGGSGLGGDGGGGAGGCGGGSGGGVAPRRDPVPFPSGSSGPGPRGPRATES[about 60 residues not written out]SKLQKNKQRLRNDPLNQNKGKPDLNTTLPIRQTASIFKQPVTKFTNHPSNKVKSDPQRMNEQPRQLFWEKRLQGLSASDVTEQIIKTMELPKGLQGVGPGSNDETLLSAVASALHTSSAPITGQVSAAVEKNPAVWLNTSQPLCKAFIVTDEDIRKQEERVQQVRKKLEEALMADILSRAADTEEVDIDMDSGDEA
notes: MBD2a, mouse, full length; Made by replacing the GFP of MBD2G with a strep-tag; also called MBD2st; source: Sf9 (baculovirus), purified (Strep-Tactin Sepharose, eluted with desthiobiotin)
  binding result: binds
